Test results taken from the supplement of paper PMC11417369.
± gives the standard deviation of the averaged measurements. Some of the results follow.

These sequences were tested on PfAP2-I AP2 domain 3 (GST-tagged) (assay: gcPBM binding intensity (ln(normalized median fluorescence intensity)); higher = stronger DNA binding).
How it was run: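 The binding buffer was 1× PBS containing 1% milk, 0.2 mg/ml BSA, 0.5% salmon testes DNA and 0.03% Triton X-100. In it, GST-tagged P. falciparum DNA-binding domains expressed in E. coli were applied for 1 h to an Agilent 4 × 180k array of primer-extended double-stranded 36-bp intergenic genomic probes plus negative controls. Binding intensity, read with Alexa488 anti-GST antibody and a 488 nm scan, is the highest Masliner-normalised natural-log median intensity across replicate spots of either probe orientation.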

Sequence | gcPBM binding intensity (ln)
ATTAATTATATAATATGTACATATTACAAATATATA [XGTACX_site1478] | 7.79 ± 0.23
TTATATCTTATAAAATGTACATAAAATATATAATAT [XGTACX_site7647] | 7.89 ± 0.12
AATAATATAACAGAACAAAACTAAATATACACATAT [TGCATGCA_negctrl_site31] | 7.93 ± 0.64
TATTTCATAATAAATTGTACGCGTAGAAAACCATGA [XGTACX_site7506] | 8.43 ± 0.23
CTAATTAATGGGTACATACACACATATATACATACA [CACACA_site743] | 8.07 ± 0.2
ATATTAAAATTAAACGCATGCATATATTATAAAAGA [TGCATGCA_site231] | 7.8 ± 0.68
TTCTGTATAACACAAATTTTTTTTTATTCACTCTGT [TGCATGCA_negctrl_site410] | 7.82 ± 0.59
TTTTTATCAAATAAATGTACACATATTAAATGAAAT [XGTACX_site555] | 7.83 ± 0.3
AACACTTCATACACGTGTACAAATATAATATAGACA [XGTACX_site5671] | 8.49 ± 0.16
GGAAATAATATTATTACACACCAAAATGTATAAAAA [CACACA_site4036] | 8.36 ± 0.85
AAAATATTCACGTGTACATATATATATATATATTAT [TGCATGCA_negctrl_site192] | 8.22 ± 0.35
ATATTTAAAAAATGATGTACAAAAATGTAGTCACAC [XGTACX_site6208] | 8.04 ± 0.32
GAAATTAAATGACATACACACTATATTATAGATTTT [CACACA_site7468] | 7.62 ± 0.54
TATTTTAATGAATTCACACATATAATTTATTTTATA [CACACA_site4538] | 7.49 ± 0.6
GACATAAAATTCAAAGTGCATAAATAAAATAAACCC | 10.4 ± 0.2
TTTTTTTTTTTTTTCTGTACAAATTAAATCTACATA [XGTACX_site8285] | 8.15 ± 0.57
AATATATATTAATAAAGTACAGGAAATATTTTTACC [XGTACX_site7052] | 8.13 ± 0.48
AAAATACATAGACACACACACACACGGATATAAATA [CACACA_site7643] | 8.05 ± 0.43
ATATATATATATAAATGTACAGATATATTTTTTATT [XGTACX_site5445] | 9.05 ± 0.22
TTTAATTTGATAGACACATGCACACGTGCAATACTT [TGCATGCA_site777] | 10.95 ± 0.021
TACTAAAAAATATAAACACACATATATTTTACATAT [CACACA_site2042] | 7.59 ± 0.35
ATAGTATCTGGTAGCTGTACGAGTCGTAGAGTGTAA [XGTACX_site4936] | 8 ± 0.49
ATATAAAACTAATTTCTTTTTCTCCTTTTATTTTGT [CACACA_negctrl_site1251] | 7.8 ± 0.59

Sequence | gcPBM binding intensity (ln)
TTTGTAAGAAATAAATGTACAAAAATTAATTTTTAT [XGTACX_site8983] | 7.68 ± 0.54
TGATTAATAATTTTCTTCATACATTAAACATCTTTT [TGCATGCA_negctrl_site342] | 7.31 ± 0.68
TTTTTTTTTTCATTAACACACATAAATATATATATA [CACACA_site5759] | 9.015 ± 0.021
CACTAATAGTGGATTACACACATATATCTGTATTTA [CACACA_site5403] | 8.27 ± 0.45
GAGAAAAATAAATACACACACATAAATAAATACATA [CACACA_site5102] | 7.79 ± 0.61
TATGTATATTTTAATTGTACGTGTATGGTTGTAAAT [XGTACX_site8738] | 8.21 ± 0.33
TTAATGTTATATGTGTGTACATATAAGTTTAGTAAA [XGTACX_site4651] | 7.92 ± 0.25
CAGTAGTTTTTATGGGTGCAAAACATATATATAACA | 10.8 ± 0.6
ATATATATATCAAAATGTACAAAAATAGAATTTAAA [XGTACX_site8292] | 8.64 ± 0.21
AAAATTAAAATATCACGTACGAAGAAAAAATTAAGA [XGTACX_site6437] | 7.86 ± 0.54
TACACCCACCAACACACACACACACTAATAAAAAAA [CACACA_site8060] | 8.15 ± 0.13
CCTTTCCTAGCACATGCACACAAAAAAAAAAAAAAA [CACACA_site8396] | 8.7 ± 0.23
AAACGGCTATTAAAATGTACATGTAAATATATTAAA [XGTACX_site918] | 7.96 ± 0.33
AATACATATGGGTGTACACATTATATATATATATAT [CACACA_site4601] | 9.34 ± 0.36
ATCTTTTTACTTAATACACACACACCCAAAAAAAAA [CACACA_site8221] | 8.59 ± 0.19
CATGAATATTTATACATGCACACTAAAATAAAGAAT [CACACA_site2412] | 8.48 ± 0.74
GAGGGTATAATAAAAGCACACACAAAGATATAAATA [CACACA_site9087] | 8.68 ± 0.18
GAAAATATTACATACACGCACACATTAATATATTTA [CACACA_site2604] | 8.26 ± 0.52
ACATTTTGTAAAGAATGTACATATATATATATATTC [XGTACX_site8004] | 7.79 ± 0.35
TATATATATATATACACACACACACCCCAAAGCGTA [CACACA_site64] | 9.75 ± 0.52
AAAAAATGCGACATGTGTACACATATATATATATAT [XGTACX_site1679] | 9.79 ± 0.46
ATTATGAATTTTAATTGTACATTATTATAGAATGTA [XGTACX_site619] | 7.4 ± 0.48
AATAATTCTTAAAGGTGTACAATATGTATATAAGAA [XGTACX_site595] | 8.38 ± 0.32

Sequence | gcPBM binding intensity (ln)
AGTTATTTTTATATTTCACACACATATACTTTTACA [CACACA_site9357] | 7.98 ± 0.69
AAATTTTTTATTAGTAGTACGCATAAATATATGTAT [XGTACX_site1934] | 7.92 ± 0.22
AAAAATTCTTCCCAAGCATGCGCGCGTAAAATATTT [TGCATGCA_site77] | 7.79 ± 0.67
AAAAAAAAAAGAAAAGGTACACAGAATATATATATA [XGTACX_site6914] | 9.3 ± 0.12
AAAAAAATAAGACACACACACAAAAAAATAAAAATA [CACACA_site6357] | 7.86 ± 0.43
ATTTTCTATATCTTTCAACACACAAATTTTTTTTTC [CACACA_site7918] | 7.91 ± 0.63
TACATCAAACAAGTATGTACATATATATATATATAT [XGTACX_site7415] | 9.3 ± 0.49
AATAAATAGTAGTAGGTGCTACTATATTATATATAT [GTGCAC_site9452] | 8.73 ± 0.59
TATGTAATAATAAACGGTACACTATATTGTATGAAA [XGTACX_site4648] | 7.75 ± 0.78
GCATATGATGAGCATATAATCATAAGAAAAAAAAAA [CACACA_negctrl_site701] | 7.66 ± 0.79
TATATATATATAGATGCATGCAATTACATATAACAA [TGCATGCA_site118] | 9.14 ± 0.057
TTGTGTACATATTAAGTGCATATATATATATATATA | 10 ± 0.47
TATTTTGAAATGGAAAGGATATAGAACTTAAACAAA [CACACA_negctrl_site1530] | 7.75 ± 0.47
AACATACGACAATACGCACACATATAAGTACATATT [CACACA_site8584] | 8.575 ± 0.007
TTTATAAAAAGCATAACACACACATGTCAATATATA [CACACA_site8286] | 7.71 ± 0.52
ATACATTCAAAATATACACACATATATCTATAATAT [CACACA_site6576] | 7.69 ± 0.65
TTTCTTTAGTAGAATGTAAAAAATATAATCTTCTTA [TGCATGCA_negctrl_site298] | 7.13 ± 0.57
TTATGTAGTATAATGAGTACTAAATATAGATATGTT [XGTACX_site6335] | 7.84 ± 0.5
AATTACTTAAATTATTGTACCCTAATGTTAATTTCA [XGTACX_site825] | 7.74 ± 0.73
AATATTATAAATGATACACACTTAAAATACAGACAC [CACACA_site8868] | 8.19 ± 0.4
TTCATAAAAAATGTAGTGCATTGAATAAAATTACAT [GTGCAC_site9393] | 10.4 ± 0.41
TTTTATATCTACCTTTGTACATATTTATTTTTTTTA [XGTACX_site7872] | 8.01 ± 0.74
TTAATTTTGGTAAATGCATGTAATTAAAAATAAAAA [TGCATGCA_site234] | 8.19 ± 0.8

Sequence | gcPBM binding intensity (ln)
ATATTGAAATTAAAAAAATATATGAACAAATGATGA [CACACA_negctrl_site602] | 7.69 ± 0.59
TAAATTTTTTTTTTTTGTACACAAAAATATAATATT [XGTACX_site8151] | 7.61 ± 0.31
AAAATTATTAAATATGTACACACGTACATTTTATAA [CACACA_site8750] | 7.72 ± 0.35
TATAAATATGTGTATACACACCTGATAAAGGTATAT [CACACA_site7283] | 8.14 ± 0.52
ATATATATATATATATGTACATATACACATGTGTGC [XGTACX_site168] | 9.39 ± 0.44
AAATAAATAATAAATAAATAAATAAAATACCAAATA [GTGCAC_negctrl_site620] | 7.61 ± 0.7
GCTTATGCTCAATATTGTACTTTTTTTATTTATTCA [XGTACX_site8863] | 7.98 ± 0.62
TACTTCTTTTTTATTTATTTTACTTTTTATTCTGTA [CACACA_negctrl_site772] | 7.86 ± 0.66
ATTTAATTTTTTTTTAAACACACATTTTTTTATTTA [CACACA_site8880] | 7.75 ± 0.54
TTCAATTATATTCTTTGTACGAATCTTCTATAAATT [XGTACX_site4346] | 8.02 ± 0.44
TACATAAACATTTATACACACATTATATATACATAT [CACACA_site8028] | 7.85 ± 0.52
TGTGCTCGCTATTACACACTCATTGGGATAAAATTG [CACACA_site2029] | 7.76 ± 0.33
TGGCTTATTCAGAAATGTACACATATAAATATATAT [XGTACX_site3765] | 7.93 ± 0.35
TGAATAAATAAGATACGTACACACATATACAAAATA [XGTACX_site7758] | 7.95 ± 0.59
TTTCTTTTAATTATCCGTACACAAACAATAAAATAA [XGTACX_site7841] | 8.195 ± 0.049
AAAATAATATATGTATGTACACAATTATTTATAAGT [XGTACX_site7267] | 7.96 ± 0.39
AAAAAAAAAAAAAACACACACACACGCAAATACATA [CACACA_site6474] | 8.38 ± 0.52
TCCTTAAATATAAAGGTGCTATGCAGACCTTATGTT [GTGCAC_site9472] | 8.17 ± 0.41
TTATAAATTCAATGTACTACACAAAATGAATTTAAT [XGTACX_site6683] | 7.82 ± 0.22
TACAGACATAGACACACACACACGCATAAAAAAAAA [CACACA_site6820] | 8.22 ± 0.45
